# Source: patent publication US20180339031A1
# Where a chain is given by its changes, count along the chain named.
# B1: O32 antibody (antibody, human IgG1, lambda, V domains shown)
# VH: [letters of about 120 residues not shown]
# VL: SYVLTQPPSVSVAPGKTARITCGGNKIGHRAVHWYQQKPGQAPVLVIYYTYDRPSGIPERFSGSNSGNTATLTISRVEAGDEADYYCQVWDASRRDANVVFGGGTKLTVLG
# B2: O35 antibody (antibody, human IgG1, lambda, V domains shown)
# VH: [letters of about 120 residues not shown]
# VL: QPVLTQPVSLSASPGASVSLTCTLRSDIRVRDYRIFWYQQKPGSPPQYLLRYKTDSDKQQGSGVPSRFSGSKDASANAGILLISGLQSEDEADYYCMIWHRTTGTSLVFGGGTKLTVLG
# B3: O37 antibody (antibody, human IgG1, lambda, V domains shown)
# VH: [letters of about 120 residues not shown]
# VL: QPVLTQPASLSASPGASASLTCTLRSGINVKDYRIFWYQQKPGSPPQYLLRYKSESDKQQGSGVPSRFSGSKDASANAGILLISGLQSEDEADYYCMIWHKDREGHAFVFGGGTKLTVLG
# B4: O38 antibody (antibody, human IgG1, lambda, V domains shown)
# VH: [letters of about 120 residues not shown]
# VL: B3 VL with K31R, E55A, K101H, R103S
# B5: O41 antibody (antibody, human IgG1, lambda, V domains shown)
# VH: [letters of about 120 residues not shown]
# VL: SYVLTQPPSVSVAPGKTARITCGGNKIGHRAVHWYQQKPGQAPVLVIYYTYERPSGIPERFSGSNSGNTATLTISRVEAGDEADYYCQVWDWYSEGGVVFGGGTKLTVLG
# Target: human mesothelin (hMSLN), recombinant soluble extracellular domain (human) (UniProt Q13421)
# UniProt Q13421, sequence (Q13421 other isoform, or with tags, fused parts or gaps limits assumed, form in doubt): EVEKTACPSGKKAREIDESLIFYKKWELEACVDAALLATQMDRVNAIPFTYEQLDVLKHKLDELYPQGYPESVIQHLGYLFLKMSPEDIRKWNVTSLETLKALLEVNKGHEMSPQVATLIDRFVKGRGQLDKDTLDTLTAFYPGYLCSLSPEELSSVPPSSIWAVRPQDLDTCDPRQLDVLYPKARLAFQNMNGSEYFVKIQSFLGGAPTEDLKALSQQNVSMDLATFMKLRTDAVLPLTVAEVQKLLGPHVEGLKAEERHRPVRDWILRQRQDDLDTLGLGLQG
# Assay: BLI (OctetRED96), IgG on Protein A biosensors, human MSLN in solution, 1:1 global fit, n = 2
row,Binder,Kd
1,B1,529 nM
2,B2,22.7 nM
3,B3,313 nM
4,B4,168 nM
5,B5,19 nM
